Data reported in patent publication US20240376225A1 (CHILDREN S MEDICAL CENTER, published 2024).
Where two headings read alike, the source gives them in different places.

T1: human CD21 protein (human, UniProt P20023 21-971, limits assumed)
T1 construct: the Biacore set-up is not described; also called huCD21; CR2
T1 sequence (looked up): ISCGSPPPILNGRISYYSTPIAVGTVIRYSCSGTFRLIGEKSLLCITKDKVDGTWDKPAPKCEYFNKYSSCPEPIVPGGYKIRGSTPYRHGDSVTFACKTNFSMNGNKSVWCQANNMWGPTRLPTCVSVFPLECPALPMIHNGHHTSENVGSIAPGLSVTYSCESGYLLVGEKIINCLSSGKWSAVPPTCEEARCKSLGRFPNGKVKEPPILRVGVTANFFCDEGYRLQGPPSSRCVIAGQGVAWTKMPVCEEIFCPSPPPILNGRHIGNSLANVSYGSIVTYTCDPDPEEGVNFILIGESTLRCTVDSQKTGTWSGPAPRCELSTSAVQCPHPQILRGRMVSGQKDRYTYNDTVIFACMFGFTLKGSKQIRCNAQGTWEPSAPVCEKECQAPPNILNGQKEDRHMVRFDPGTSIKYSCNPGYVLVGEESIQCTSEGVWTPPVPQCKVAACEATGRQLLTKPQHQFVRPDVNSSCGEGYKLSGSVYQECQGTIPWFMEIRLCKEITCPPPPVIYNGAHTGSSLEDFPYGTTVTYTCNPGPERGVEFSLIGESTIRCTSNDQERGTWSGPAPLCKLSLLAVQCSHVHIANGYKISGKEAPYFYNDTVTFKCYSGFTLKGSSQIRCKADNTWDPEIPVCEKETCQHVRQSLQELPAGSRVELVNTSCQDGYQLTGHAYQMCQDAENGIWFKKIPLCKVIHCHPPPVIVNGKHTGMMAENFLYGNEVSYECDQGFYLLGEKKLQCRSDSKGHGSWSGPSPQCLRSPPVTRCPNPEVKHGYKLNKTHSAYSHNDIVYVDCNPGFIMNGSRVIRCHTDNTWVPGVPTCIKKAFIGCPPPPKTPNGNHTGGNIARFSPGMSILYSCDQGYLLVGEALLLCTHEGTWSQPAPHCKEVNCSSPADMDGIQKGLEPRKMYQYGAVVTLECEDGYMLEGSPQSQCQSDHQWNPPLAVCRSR

T2: human CD21 on Raji B cells or primary B cells (human, UniProt P20023 21-1033)
T2 sequence (looked up): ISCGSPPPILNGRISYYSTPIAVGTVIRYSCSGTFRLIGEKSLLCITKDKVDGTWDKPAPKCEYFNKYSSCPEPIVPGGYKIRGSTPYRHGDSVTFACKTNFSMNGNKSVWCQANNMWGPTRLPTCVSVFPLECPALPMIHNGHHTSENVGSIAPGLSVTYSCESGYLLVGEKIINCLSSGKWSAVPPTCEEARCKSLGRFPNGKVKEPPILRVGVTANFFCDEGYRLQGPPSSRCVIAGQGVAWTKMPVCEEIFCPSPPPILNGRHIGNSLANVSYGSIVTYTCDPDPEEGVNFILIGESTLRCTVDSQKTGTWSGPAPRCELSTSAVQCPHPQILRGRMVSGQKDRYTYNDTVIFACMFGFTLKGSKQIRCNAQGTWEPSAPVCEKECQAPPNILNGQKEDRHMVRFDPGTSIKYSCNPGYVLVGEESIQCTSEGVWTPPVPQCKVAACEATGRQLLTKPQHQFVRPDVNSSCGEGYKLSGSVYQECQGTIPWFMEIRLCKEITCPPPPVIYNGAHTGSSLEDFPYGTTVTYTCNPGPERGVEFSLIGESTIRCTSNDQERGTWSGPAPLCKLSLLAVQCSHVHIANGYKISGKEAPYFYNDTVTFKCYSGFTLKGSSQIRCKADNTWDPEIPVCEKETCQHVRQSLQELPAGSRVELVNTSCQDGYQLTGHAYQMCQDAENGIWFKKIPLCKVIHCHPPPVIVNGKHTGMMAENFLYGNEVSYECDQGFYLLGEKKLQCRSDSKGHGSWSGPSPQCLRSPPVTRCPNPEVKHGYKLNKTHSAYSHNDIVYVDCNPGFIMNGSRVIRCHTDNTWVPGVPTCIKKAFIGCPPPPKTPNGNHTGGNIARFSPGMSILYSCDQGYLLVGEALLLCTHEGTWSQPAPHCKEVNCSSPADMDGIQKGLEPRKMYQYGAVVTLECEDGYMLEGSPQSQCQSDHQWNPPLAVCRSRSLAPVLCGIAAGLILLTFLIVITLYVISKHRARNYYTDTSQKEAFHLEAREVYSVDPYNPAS


Tests used:
human CD21 protein [1] = biological target: T1, human CD21 protein; experiment: affinity KD; method not restated (Biacore elsewhere)
human CD21 protein [2] = biological target: T1, human CD21 protein; experiment: as above; remark: listed apart in the source
[3] = biological target: T2, human CD21 on Raji B cells or primary B …; experiment: cell-based or functional assay
[4] = biological target: T2, human CD21 on Raji B cells or primary B …; experiment: cell-based or functional assay; remark: listed apart in the source

Binder | Kd (human CD21 protein [1]) | Kd (human CD21 protein [2]) | pAKT inhibition, IC50, nM; Primary B cells [3] | pAKT inhibition, IC50, nM; Primary B cells [4]
Ab652 (antibody, human IgG1, kappa, IgG1; same as Ab658 but without the C-terminal Lys on the heavy chain) heavy: QVQLVQSGAEVKKPGSSVKVSCKASGGELSSYAISWVRQAPGQGLEWMGRIIPILGIANYAQKFQGRVTITADKSTSTAYMELSSLRSEDTAVYYCAREEDISGYYQDWGQGTLVTVSSASTKGPSVFPLAPSSKSTSGGTAALGCLVKDYFPEPVTVSWNSGALTSGVHTFPAVLQSSGLYSLSSVVTVPSSSLGTQTYICNVNHKPSNTKVDKKVEPKSCDKTHTCPPCPAPEAAGAPSVFLFPPKPKDTLMISRTPEVTCVVVDVSHEDPEVKFNWYVDGVEVHNAKTKPREEQYNSTYRVVSVLTVLHQDWLNGKEYKCKVSNKALPAPIEKTISKAKGQPREPQVYTLPPSREEMTKNQVSLTCLVKGFYPSDIAVEWESNGQPENNYKTTPPVLDSDGSFFLYSKLTVDKSRWQQGNVFSCSVMHEALHNHYTQKSLSLSPG light: EIVMTQSPATLSVSPGERATLSCRAGQSISSYLAWYQQKPGQAPRLLIYDASSRATGIPARFSGSGSGTEFTLTISSLQSEDFAVYYCQQYEYWYSFGQGTKLEIKRTVAAPSVFIFPPSDEQLKSGTASVVCLLNNFYPREAKVQWKVDNALQSGNSQESVTEQDSKDSTYSLSSTLTLSKADYEKHKVYACEVTHQGLSSPVTKSFNRGEC | 0.013 nM | 0.013 nM | 6.31 nM | 6.31 nM
Ab658 (antibody, human IgG1, kappa, fully human IgG1 (effector-less 3A mutant); Ab652 with C-terminal Lys on the heavy chain; also called Ab652 + CTK; Ab658 = Ab652 + CTK) heavy: QVQLVQSGAEVKKPGSSVKVSCKASGGELSSYAISWVRQAPGQGLEWMGRIIPILGIANYAQKFQGRVTITADKSTSTAYMELSSLRSEDTAVYYCAREEDISGYYQDWGQGTLVTVSSASTKGPSVFPLAPSSKSTSGGTAALGCLVKDYFPEPVTVSWNSGALTSGVHTFPAVLQSSGLYSLSSVVTVPSSSLGTQTYICNVNHKPSNTKVDKKVEPKSCDKTHTCPPCPAPEAAGAPSVFLFPPKPKDTLMISRTPEVTCVVVDVSHEDPEVKFNWYVDGVEVHNAKTKPREEQYNSTYRVVSVLTVLHQDWLNGKEYKCKVSNKALPAPIEKTISKAKGQPREPQVYTLPPSREEMTKNQVSLTCLVKGFYPSDIAVEWESNGQPENNYKTTPPVLDSDGSFFLYSKLTVDKSRWQQGNVFSCSVMHEALHNHYTQKSLSLSPGK light: EIVMTQSPATLSVSPGERATLSCRAGQSISSYLAWYQQKPGQAPRLLIYDASSRATGIPARFSGSGSGTEFTLTISSLQSEDFAVYYCQQYEYWYSFGQGTKLEIKRTVAAPSVFIFPPSDEQLKSGTASVVCLLNNFYPREAKVQWKVDNALQSGNSQESVTEQDSKDSTYSLSSTLTLSKADYEKHKVYACEVTHQGLSSPVTKSFNRGEC | 0.011 nM | 0.011 nM | 1.66 nM | 1.66 nM
